Results: article PMC7894572 (Chemmedchem, 2020)

Details: 100 μM, enzyme assay buffer

Row | Structure (SMILES) | Solubility under the conditions used in the assay
1 | C[C@H](c1cccc2ccccc12)N1Cc2cccc(Cl)c2C1 [Compound 14 g, 4‐Chlor‐2‐[(1R)‐1‐naphth‐1‐ylethyl]‐2,3‐dihydro‐1H‐isoindol] | n.d. (insoluble)^[d]
2 | C[C@H](c1cccc2ccccc12)N1Cc2cccc(F)c2C1 [Compound 14 b, 4‐Fluor‐2‐[(1R)‐1‐naphth‐1‐ylethyl]‐2,3‐dihydro‐1H‐isoindol chloride] | n.d. (insoluble)^[d]

Marks after values point to notes of the source that are not given here.
